Paper PMC3737525, “Structural and mechanistic basis of anti-termination of Rho-dependent transcription termination by bacteriophage P4 capsid protein Psu” (Nucleic Acids Research, 2013)
Positions count from the first letter of the chain named. These are yes or no findings as the source states them, for the method shown. In cells and extracts the contact can be indirect. Some results given as binding are weak or reduced against the parent protein; the word gives no strength. For part of these data: Where a sequence is shown, tags or fusion partners need not be part of it.

Chains of the proteins cited; added tags and fusions are not shown. Lines headed by an entry give the natural chain unless they say otherwise; changes in a name come on top.
UniProt P0AG30: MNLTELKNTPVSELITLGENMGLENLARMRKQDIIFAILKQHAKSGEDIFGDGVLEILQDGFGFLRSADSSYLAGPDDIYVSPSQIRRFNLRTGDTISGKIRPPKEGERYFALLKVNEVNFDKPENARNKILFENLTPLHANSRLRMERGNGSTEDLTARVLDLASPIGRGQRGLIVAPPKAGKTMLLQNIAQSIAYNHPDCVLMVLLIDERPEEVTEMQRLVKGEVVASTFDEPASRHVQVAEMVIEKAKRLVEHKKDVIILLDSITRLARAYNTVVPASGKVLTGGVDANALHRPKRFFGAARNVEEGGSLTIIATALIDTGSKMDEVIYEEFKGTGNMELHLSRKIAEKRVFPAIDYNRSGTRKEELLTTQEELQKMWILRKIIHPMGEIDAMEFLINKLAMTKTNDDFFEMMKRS

Experiments:
[1] = biological target: WT Psu, His-tagged at the N-terminus (bacteriophage P4) (UniProt P05460); assay: pull-down; in vivo pull-down: N-terminally His-tagged Psu and untagged Rho co-overexpressed in BL21 (DE3); lysate (100 mM NaH2PO4, 100 mM NaCl, 10 mM imidazole) passed through Ni-NTA, washed with 20 mM imidazole, eluted with 500 mM imidazole; fractions on SDS-PAGE
[2] = biological target: T1, R166C Psu, His-tagged at the N-terminus (bacteriophage P4) (UniProt P05460); assay: as above
T1 sequence: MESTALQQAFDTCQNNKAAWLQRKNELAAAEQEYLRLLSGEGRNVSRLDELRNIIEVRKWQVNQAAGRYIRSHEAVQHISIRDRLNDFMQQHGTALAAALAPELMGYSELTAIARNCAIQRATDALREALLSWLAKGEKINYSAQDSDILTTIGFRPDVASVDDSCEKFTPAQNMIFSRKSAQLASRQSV

[3] = biological target: T2, F169V Psu, His-tagged at the N-terminus (bacteriophage P4) (UniProt P05460); assay: as above
T2 sequence: T1 sequence with C166R, F169V

[4] = biological target: T3, E56K Psu, His-tagged at the N-terminus (bacteriophage P4) (UniProt P05460); assay: as above
T3 sequence: T1 sequence with E56K, C166R

[5] = biological target: T4, Psu single cysteine derivative S161C (bacteriophage P4) (UniProt P05460); assay: pull-down; pull-down assays of the single Cys derivatives (Supplementary Figure S3A and B); format not shown
T4 sequence: T1 sequence with C13S, C117S, S161C, C166R

[6] = biological target: Psu single cysteine derivative S80C (bacteriophage P4) (UniProt P05460); assay: as above
[7] = biological target: T5, Psu single cysteine derivative S181C (bacteriophage P4) (UniProt P05460); assay: as above
T5 sequence: T1 sequence with C13S, C117S, C166R, S181C

[8] = biological target: WT Psu, His-tagged at the N-terminus (bacteriophage P4) (UniProt P05460); assay: as above

## E148R Rho (from UniProt P0AG30 1-419)
[1]
  binding: no binding

## K352A Rho (from UniProt P0AG30 1-419)
[1]
  binding: binds

## N151D Rho (from UniProt P0AG30 1-419)
[1]
  binding: binds
[2]
  binding: binds
[3]
  binding: binds
[4]
  binding: no binding

## P167L Rho (from UniProt P0AG30 1-419)
[5]
  binding: binds
[6]
  binding: binds
[7]
  binding: binds
[8]
  binding: binds
[1]
  binding: binds
[2]
  binding: binds
[3]
  binding: binds
[4]
  binding: no binding

## R144E Rho (from UniProt P0AG30 1-419)
[1]
  binding: no binding

## R146E Rho (from UniProt P0AG30 1-419)
[1]
  binding: no binding

## R149E Rho (from UniProt P0AG30 1-419)
[1]
  binding: binds

## Single Cys derivative L204C of P167L Rho (from UniProt P0AG30 1-419)
[8]
  binding: binds

## Single Cys derivative S153C of P167L Rho (from UniProt P0AG30 1-419)
[8]
  binding: binds

## Single Cys derivative S346C of P167L Rho (from UniProt P0AG30 1-419)
[8]
  binding: binds

## V354N Rho (from UniProt P0AG30 1-419)
[1]
  binding: binds

## WT Rho (from UniProt P0AG30 1-419)
[1]
  binding: binds
[2]
  binding: no binding
[3]
  binding: no binding
[4]
  binding: no binding

## Δ(144–148) Rho (from UniProt P0AG30 1-419)
[1]
  binding: binds

## Δ(149–153) Rho (from UniProt P0AG30 1-419)
[1]
  binding: binds
